# Laboratory results published in PubChem BioAssay AID1030 (National Center for Advancing Translational Sciences (NCATS), 2008).
# Values joined by “and” are separate entries in the source; they are usually repeats but may differ in a detail not shown here. Identical values can stand only once. Screen size: about 220,000 compounds; about 16,000 (7.3%) were called active. This list was built around the results that the source calls inconclusive (neither active nor inactive); the mix of calls is not that of the screen. Calls come from the whole dose curve; as a rule, active = well fitted inhibition curve with a large enough effect (not every such curve was filed as active); inconclusive = small, poorly fitted or top-dose-only effect, or another doubt; inactive = no such curve, though single readings can be large or run the other way. Potencies beside an inconclusive call are fits to weak or partial responses and may not hold up.
# Target: Aldehyde dehydrogenase 1A1 (Homo sapiens) (UniProt P00352)
# Chain of UniProt P00352 (P00352 whole entry, looked up): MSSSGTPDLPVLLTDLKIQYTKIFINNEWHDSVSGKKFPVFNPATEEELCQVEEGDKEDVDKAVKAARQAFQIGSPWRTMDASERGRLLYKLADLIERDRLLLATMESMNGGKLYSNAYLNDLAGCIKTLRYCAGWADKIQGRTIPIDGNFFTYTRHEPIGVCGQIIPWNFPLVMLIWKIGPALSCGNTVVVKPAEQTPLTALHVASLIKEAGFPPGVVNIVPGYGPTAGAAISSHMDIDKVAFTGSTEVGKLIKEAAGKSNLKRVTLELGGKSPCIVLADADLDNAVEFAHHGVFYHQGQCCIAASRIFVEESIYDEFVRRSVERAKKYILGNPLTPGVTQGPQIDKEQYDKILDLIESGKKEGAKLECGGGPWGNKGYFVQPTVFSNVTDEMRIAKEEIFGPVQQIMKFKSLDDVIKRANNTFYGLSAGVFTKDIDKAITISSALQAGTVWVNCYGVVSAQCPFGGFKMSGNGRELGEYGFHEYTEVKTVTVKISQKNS
# Test: qHTS Assay for Inhibitors of Aldehyde Dehydrogenase 1 (ALDH1A1);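 for activity, negative = inhibition: plate controls were no enzyme wells and a reference inhibitor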
# Details: Purified ALDH1A1, NADH fluorescence, propionaldehyde substrate; series mostly up to 75.3 µM; activity, negative = inhibition: at the top concentration
# Potency is the fitted concentration of half-maximal effect; tags give direction and shape of the fitted curve.
Compound,Potency,"activity, negative = inhibition"
Cc1ccc2nc3c(cc(S(=O)(=O)c4ccccc4)c(=N)n3Cc3ccco3)c(=O)n2c1,"inconclusive: 3.55 µM [inhibitor, full curve]",
O=C(NNC(=O)c1cc2cc3ccccc3nc2s1)c1cccc(C(F)(F)F)c1,"inconclusive: 39.8 µM [inhibitor, single point]",
Cc1nc(-c2cnn(-c3ccccc3)c2)c2cc(C)oc2n1,"inconclusive: 28.2 µM [inhibitor, partial curve]",
O=C(NCc1ccc2c(c1)OCO2)C1CC(c2cccc(Br)c2)=NO1 (stereo not drawn),,inactive: -2.97%
CN(C)S(=O)(=O)c1ccc(C(=O)Nc2ccc(CN3CCCC3)cc2)cc1,"inconclusive: 39.8 µM [inhibitor, single point]",
COc1ccc(OC)c(NC(=O)C23CC4CC(C2)CC(n2cnc(Br)n2)(C4)C3)c1,"inconclusive: 28.2 µM [inhibitor, single point]",
CCc1ccccc1N1CN(Cc2cccnc2)CNC1=S,,inactive: 4.82%
Cc1c(/C(O)=C2/C(=O)C(=O)N(Cc3cccnc3)C2c2cccs2)cnn1-c1ccccc1 (stereo not drawn),active: 1.12 µM,
O=C(O)CSc1nnc(CSc2nc3ccccc3s2)n1-c1ccccc1,,inactive: 4.58%
C=CCn1c(-c2csc(-c3ccc(Cl)cc3)n2)n[nH]c1=S,"inconclusive: 0.398 µM [inhibitor, full curve]",
COc1cccc(NC(=O)Cn2c(=O)n(CC3CCCO3)c(=O)c3ccccc32)c1 (stereo not drawn),"inconclusive: 17.8 µM [inhibitor, partial curve]",
CC(O)C(=O)O (stereo not drawn),,inactive: -1.46%
O=[N+]([O-])c1ccc(O)c(C=Nc2ccc3c(c2)OCO3)c1,"inconclusive: 39.8 µM [inhibitor, single point]",
CN1CCc2cccc3c2[C@@H]1Cc1ccc(O)c(O)c1-3,active: 25.1 µM,
CC(C)(C)c1ccc(S(=O)(=O)N2CCN(c3ncccn3)CC2)cc1,,inactive: 8.25%
COc1cc(C2C(C#N)=C(N)Oc3n[nH]c(C)c32)ccc1OC(=O)c1ccccc1 (stereo not drawn),"inconclusive: 44.7 µM [inhibitor, single point]",
C=CCn1c(=N)n(CC(O)COc2ccccc2OC)c2ccccc21 (stereo not drawn),,inactive: 19%
CCOCCCNc1ncnc2c1[nH]c1ccccc12,"inconclusive: 39.8 µM [inhibitor, single point]",
CCOc1ccc2nc(NCCNS(=O)(=O)c3ccccc3)c(C#N)cc2c1,"inconclusive: 28.2 µM [inhibitor, partial curve]",
O=C1NCCN1Cc1ccc(F)cc1,"inconclusive: 39.8 µM [inhibitor, single point]",
O=C(CN1CCOCC1)Nc1ccccc1-c1ccccc1,active: 14.1 µM,
Cc1cc(C)n(C(CC(=O)N2CCc3ccccc3C2)C(=O)O)n1 (stereo not drawn),,inactive: 5.49%
Cc1cnc(C(=O)OCC(=O)NCCCc2ccccc2)cn1,,inactive: -3.78%
CCCOc1cccc(C(=O)NC(=S)Nc2cccc(NC(=O)c3ccccc3Cl)c2)c1,active: 12.6 µM,
CC/C(=N\NC(=O)c1cc(C)nc2ccccc12)c1ccc(C)s1,,inactive: 3.44%

Compound,Potency,"activity, negative = inhibition"
O=C(Nc1nc2ccccc2s1)c1cc(-c2ccccc2)nn1-c1ccccc1,"inconclusive: 17.8 µM [inhibitor, partial curve]",
CN(C)c1ccc(C2Nc3ccccc3C(=O)N2NS(=O)(=O)c2ccccc2)cc1 (stereo not drawn),active: 25.1 µM,
COCc1nnc(SCC(=O)Nc2cccc(Cl)c2C)n1-c1ccccc1,,inactive: 2.1%
O=C(c1ccc(Oc2ccc([N+](=O)[O-])cc2Cl)cc1)N1CCCC1,active: 22.4 µM,
O=C(NCc1ccco1)/C(=C\C=C\c1ccccc1)NC(=O)c1ccccc1Br,"inconclusive: 39.8 µM [inhibitor, single point]",
O=C(CSc1nnc(-c2ccccc2)n1-c1ccccc1)N1c2ccccc2Sc2ccccc21,"inconclusive: 39.8 µM [inhibitor, single point]",
CC(c1ccon1)N(C)C(=O)CCc1nnc(Cc2ccc(-c3ccccc3)cc2)o1 (stereo not drawn),"inconclusive: 28.2 µM [inhibitor, single point]",
CN(C)c1ccc(/C=N/NC(=O)c2ccn(C)n2)cc1,"inconclusive: 23.8 µM [inhibitor, single point]",
Cn1c(N)c(C(=O)COC(=O)CCC2CCCC2)c(=O)n(C)c1=O,"inconclusive: 11.2 µM [inhibitor, partial curve]",
Cc1occc1C(=O)Nc1ccc2c(c1)OCCO2,active: 12.6 µM,
COc1ccc(-c2cc(C(F)(F)F)n3nc(C(=O)NCCCN4CCOCC4)cc3n2)cc1,"inconclusive: 25.1 µM [inhibitor, single point]",
CC1CCc2cc(F)cc3c(O)c(C(=O)NCc4ccco4)c(=O)n1c23 (stereo not drawn),,inactive: -11.8%
COCCNC(=O)/C(C#N)=C/c1cccc(NC(=O)c2ccccc2Cl)c1,active: 15.8 µM,
O=C(COC(=O)C1CCN(S(=O)(=O)c2cccc3cccnc23)CC1)c1ccc([N+](=O)[O-])cc1,active: 6.31 µM,
O=S(=O)(NCC(c1ccco1)N1CCN(c2ccccc2F)CC1)c1ccc2c(c1)OCCO2 (stereo not drawn),"inconclusive: 15.8 µM [inhibitor, single point]",
COC(=O)COc1cccc(NC(=O)c2ccc(C)cc2)c1,"inconclusive: 39.8 µM [inhibitor, single point]",
COc1ccccc1N1CCN(C(=O)c2cc(-c3ccc(Cl)cc3)on2)CC1,"inconclusive: 39.8 µM [inhibitor, single point]",
CC(=O)Nc1ccc(Nc2ccc3nonc3c2[N+](=O)[O-])cc1,active: 22.4 µM,
CC1CCCN(c2ccc(C(=O)NCc3ccccc3)cn2)C1 (stereo not drawn),"inconclusive: 39.8 µM [inhibitor, single point]",
O=C(N/N=C/c1ccc(OCC2COCCO2)cc1)c1ccc(Br)cc1 (stereo not drawn),"inconclusive: 39.8 µM [inhibitor, single point]",
O=C(CC1SC(=O)N(c2ccccc2)C1=O)Nc1ccccc1 (stereo not drawn),active: 8.91 µM,
COc1cc(/C=C2\SC(=S)N(CC(=O)Nc3ccccn3)C2=O)cc(OC)c1OC,"inconclusive: 31.6 µM [inhibitor, single point]",
COc1ccc(-c2[nH]c(-c3cccc(OC)c3)nc2SCC(=O)NCc2ccco2)cc1,"inconclusive: 25.1 µM [inhibitor, partial curve]",
O=C(O)c1ccc(C(=O)Nc2cccc3ccccc23)c(C(=O)O)c1,,inactive: -18.9% [at 13.5 µM]
C/C(=C\c1ccco1)CN1CCN(Cc2ccc(C)o2)C(CCO)C1 (stereo not drawn),,inactive: -7.33%

Compound,Potency,"activity, negative = inhibition"
Cc1ccc(-c2nc(CN(C)C3CCOC3)c(C)o2)s1 (stereo not drawn),,inactive: -5.25%
O=S(=O)(/N=C(\Sc1ccc(Cl)cc1)c1ccccc1)c1ccccc1,,inactive: -19.2%
CC(C)(Oc1cccc2ccccc12)C(=O)O,"inconclusive: 22.4 µM [inhibitor, partial curve]",
Cc1cc2nc(-c3cccc(NC(=O)c4ccc(Br)o4)c3C)oc2cc1C,"inconclusive: 20 µM [inhibitor, partial curve]",
COc1ccc(/C=C(/C#N)C(=O)Nc2cccc([N+](=O)[O-])c2)cc1C(=O)O,"inconclusive: 39.8 µM [inhibitor, single point]",
CC(=O)N1CCN(CC(=O)Nc2c(Cl)cccc2Cl)CC1,"inconclusive: 44.7 µM [inhibitor, single point]",
C#CCN(Cc1ccco1)C(=O)c1cc(COc2ccc(F)cc2Cl)on1,"inconclusive: 35.5 µM [inhibitor, single point]",
CCCCOCCCNS(=O)(=O)c1ccccc1,"inconclusive: 25.1 µM [inhibitor, partial curve, poor fit]",
Cc1cc(OCC(=O)N2CCCC2)ccc1Cl,,inactive: -7.15%
CC1CCN(CCCCOc2ccc(C(=O)c3ccccc3)cc2)CC1,"inconclusive: 35.5 µM [inhibitor, single point]",
CCOc1cc(/C=C2/NC(=O)N(CC(=O)OC)C2=O)ccc1O,"inconclusive: 17.8 µM [inhibitor, partial curve]",
O=C1NCCCC1C(=O)N1CCCCC1 (stereo not drawn),,inactive: -2.36%
Cn1ccnc1SCC(=O)Nc1nc2ccccc2s1,,inactive: -8.02%
O=C(CC1SC(=Nc2ccccc2F)N(CCN2CCOCC2)C1=O)Nc1ccc(F)cc1F (stereo not drawn),"inconclusive: 31.6 µM [inhibitor, single point]",
c1ccc(Nc2c(-c3ccco3)nc3ccccn23)cc1,"inconclusive: 28.2 µM [inhibitor, partial curve]",
CN1CCN(c2ncc3nc(-c4cn(C)c5ccccc45)c(=O)n(Cc4cccs4)c3n2)CC1,,inactive: -9.04%
CCOc1cc(C(=O)NC(=S)Nc2cccnc2)cc(OCC)c1OCC,"inconclusive: 37.7 µM [inhibitor, single point]",
CCOC(=O)c1c(-c2ccccc2Cl)csc1NC(=O)c1cc(S(=O)(=O)N2CCOCC2)ccc1C,"inconclusive: 25.1 µM [inhibitor, partial curve]",
O=C(O)c1cc(-c2ccco2)nc2ccccc12,"inconclusive: 31.6 µM [inhibitor, partial curve] and inconclusive: 28.2 µM [inhibitor, partial curve]",
CCN1C(=O)C2(C(C#N)=C(N)Oc3n[nH]c(C(C)C)c32)c2ccccc21 (stereo not drawn),"inconclusive: 39.8 µM [inhibitor, single point]",
Cc1cccc(NC(=O)CSc2ccc(-c3ccco3)nn2)c1C,active: 23.8 µM,
COC(=O)CNC(=O)COC(=O)/C=C/c1ccc2ccccc2n1,"inconclusive: 25.1 µM [inhibitor, single point]",
CC(OC(=O)c1oc2ccccc2c1COc1ccccc1)C(N)=O (stereo not drawn),active: 2.24 µM,
